# PubChem BioAssay AID1345082 (National Center for Advancing Translational Sciences (NCATS), 2018)
# Out of some 94,000 compounds screened, about 4,000 (4.3%) were called active. The inconclusive results got no clear call from the source; some entries with a clear call stand among them for comparison. The call rests on the fitted dose curve; in most records, active means well fitted inhibition curve with a large enough effect; inconclusive means small, poorly fitted or top-dose-only effect; inactive means no such curve, though single readings can be large or run the other way. Potencies of inconclusive entries are doubtful fits and often do not repeat.
# Assay: Cytotoxic Profiling in NIH 3T3 Cell Line of Diverse Libraries Using Quantitative High-Throughput Screening; further: nearly all actives have a fitted effect of over 55% in size
# Settings: NIH 3T3 viability, CellTiter-Glo ATP luminescence, 48-72 h; activity change, negative = cytotoxicity: at 96.7 µM (top of the series) unless noted; series mostly up to 96.7 µM
# Method in brief: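 Luminescent ATP readout (CellTiter-Glo, 10 min RT) after 48 or 72 hr compound exposure of NIH 3T3 cells seeded at 400 cells/well in 1536-well format; quantitative HTS.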
# On the % scale 0 is the no-effect control and ±100 the full control effect; potency means the concentration at half of the fitted maximal effect; tags describe the fitted curve by direction and shape.
SMILES,outcome,Potency,"activity change, negative = cytotoxicity"
Cc1ccccc1C(=O)N1CCCC1C(=O)N1CCCC1c1nc2ccncc2[nH]1 (stereo not drawn),inactive,,
Cc1cc(=O)n(CC(=O)Nc2ccc(Cl)cc2)c(N2CCc3ccccc3C2)n1,,"inconclusive: 44.7 µM [inhibitor, partial curve, poor fit]",
CC(C)OCCCNC(=O)c1cc(-c2cccc(C(F)(F)F)c2)c2cccn2n1,,"inconclusive: 44.7 µM [inhibitor, partial curve, poor fit]",
Cc1ccc(CN2C(=O)NC3(CCN(C(=O)c4ccsc4)CC3)C2=O)cc1,,"inconclusive: 50.1 µM [inhibitor, partial curve, poor fit]",
COc1ccc(CC(=O)N2CCN(c3nccc(Nc4ccc(OC)cc4)n3)CC2)cc1,,,inactive: -20.3%
COc1ccccc1C(=O)Nc1cc(C2CC2)nn1-c1ccccc1,,active: 22.4 µM,
COc1ccc(C2Cn3nnc(C(=O)Nc4cc(C)ccc4F)c3CO2)cc1 (stereo not drawn),,"inconclusive: 5.01 µM [inhibitor, full curve, poor fit]",
COc1cc(-c2nc3cc4[nH]c(=O)[nH]c4cc3[nH]2)cc(OC)c1O,,,inactive: -2.34%
Cn1ccc(C(=O)N2CCCC(CCc3ccccc3C(F)(F)F)C2)n1 (stereo not drawn),,"inconclusive: 50.1 µM [inhibitor, partial curve, poor fit]",
COc1cc(Cl)ccc1C(=O)N[C@@H]1CN(S(C)(=O)=O)C[C@H]1CN(C)C,,,inactive: -8.74%
O=C(NCC(F)F)c1ccc2nnc(C3CCOCC3)n2c1,,,inactive: -20.5% [at 138 µM]
CC(C)Cn1nc2n(c1=O)CCN(S(=O)(=O)c1ccc(C(C)(C)C)cc1)CC2,,"inconclusive: 35.5 µM [inhibitor, partial curve]",
O=C1CCN(S(=O)(=O)c2ccccc2)CCCN(S(=O)(=O)c2cccs2)CCN1,,,inactive: -18%
CC(Oc1ccccc1)C(=O)N1CCC(n2cc(-c3nc(-c4ccccc4)no3)nn2)C1 (stereo not drawn),,"inconclusive: 44.7 µM [inhibitor, partial curve, poor fit]",
Cc1cc(CNC(=O)[C@@H]2CCC[C@@H](NC(=O)c3ccc(C#N)cc3)CN(C)C(=O)C2)no1,inactive,,
CNC(=O)CCn1ncc2cc(OCc3ccccc3-c3cccc(OC)c3F)ccc21,,active: 44.7 µM,
CCC(=O)N(C1CCOCC1)C1CCN(Cc2cccnc2)CC1,,,inactive: -20.5%
COc1ccc(CNC(=O)c2cn3ccnc(-c4ccccc4)c3n2)cc1OC,,"inconclusive: 50.1 µM [inhibitor, partial curve, poor fit]",
O=C(NCc1ccc(F)cc1)N1CCC(N2CC3CC(C2)[C@H]2CCCC(=O)N2C3)CC1 (stereo partly drawn),inactive,,
O=C(N[C@H]1CO[C@H]2[C@@H]1OC[C@@H]2n1nnnc1Oc1ccc2c(c1)OCO2)c1ccc(C(F)(F)F)cc1,,"inconclusive: 10 µM [inhibitor, full curve, poor fit]",
CCCCNC(=O)Cc1csc2nc(C)c(-c3cc(C)n(-c4cccc(C)c4C)n3)c(=O)n12,,"inconclusive: 50.1 µM [inhibitor, single point]",
CCOC(=O)C1=CN(CC(=O)Nc2ccc(C(F)(F)F)cc2)S(=O)(=O)N=C1C,,"inconclusive: 70.8 µM [inhibitor, single point]",
O=C(c1ccsc1)N1CCN(c2cc(-c3cccs3)[nH]n2)CC1,,"inconclusive: 31.6 µM [inhibitor, partial curve]",

SMILES,outcome,Potency,"activity change, negative = cytotoxicity"
Cc1ccc(-c2noc([C@@H]3C[C@@H](O)CN3Cc3cccc(OC(F)(F)F)c3)n2)cc1F,,"inconclusive: 79.4 µM [inhibitor, single point]",
O=C(c1nc2cccnc2n(C2CCCC2)c1=O)N1CCN([S+](=O)([O-])c2cccs2)CC1,,,inactive: -22.1%
Cc1noc(C)c1CC(=O)N1CCC2(CC1)CC(OCC1CC1)CCO2 (stereo not drawn),,"inconclusive: 50.1 µM [inhibitor, partial curve, poor fit]",
c1ccc(-n2cc(CN3CCCN(Cc4cccs4)CC3)nn2)cc1,,,inactive: -30.5%
CCNC(=O)N[C@H]1CC[C@]2(C)CC[C@@H]([C@H](C)C(=O)NCc3ccco3)[C@H](O)[C@H]2[C@@H]1C,,,inactive: -6.06% [at 174 µM]
COc1cc(F)ccc1CN1CCCC12Cc1ccccc1CNC2=O (stereo not drawn),,"inconclusive: 56.2 µM [inhibitor, partial curve, poor fit]",
O=C(NCCc1ccc(Cl)cc1)c1nc2sccn2c1-c1cccc(C(F)(F)F)c1,,"inconclusive: 31.6 µM [inhibitor, partial curve]",
COC[C@@H]1CN(C(=O)COc2ccc(F)cc2)C[C@H]1c1nc(C)no1,,,inactive: -6.04%
COc1ccc(NC(=O)O[C@@H]2CO[C@H]3[C@@H]2OC[C@@H]3n2nnnc2Sc2ccccc2)cc1,,"inconclusive: 10 µM [inhibitor, full curve]",
O=C(O)C[C@@H]1CCN(C(=O)COc2ccccc2)C[C@@H]1CCN1CCN(c2ccccn2)CC1,,,inactive: -0.507%
O=C1Nc2ccc(-c3ccc(Cl)cc3)cc2C(=O)N2CC[C@H](NS(=O)(=O)c3cccs3)C[C@@H]12,,"inconclusive: 56.2 µM [inhibitor, partial curve, poor fit]",
O=C(NCCc1ccc(Cl)cc1)c1ccc2nnc(Cc3ccc(Cl)cc3)n2c1,,active: 28.2 µM,
CCc1nc(-c2c3n(c(=O)n(Cc4ccc(C)cc4C)c2=O)CCCC3)no1,,,inactive: -25.5%
COc1cccc(N2C(=O)NC(=NC3CCCC3)C23CCCN([S+](=O)([O-])c2cccs2)C3)c1 (stereo not drawn),,,inactive: -2.47%
O=C(NCc1cccnc1Oc1ccc(F)cc1F)c1cc(C2CC2)[nH]n1,,"inconclusive: 50.1 µM [inhibitor, partial curve, poor fit]",
COc1cccc(-c2cnc([C@@H]3COCCN3Cc3ccccc3)[nH]2)c1,,"inconclusive: 63.1 µM [inhibitor, partial curve, poor fit]",
CCCS(=O)(=O)N1CCC2(CC1)NCCc1c2[nH]c2ccccc12,,,inactive: -25.7%
CC[C@@]1(O)CCN(CC(=O)NCc2cc(C(=O)O)ccc2C)C[C@H]1O,,,inactive: -9.41%
Cc1ccc(-c2cccc(CN3CCCC3C(=O)NCc3cccs3)c2)cc1Cl (stereo not drawn),,active: 15.8 µM,
CCOc1ccccc1C(=O)N1CCC[C@H]1c1nc(-c2ccc(OC)c(OC)c2)no1,,,inactive: -21.3%
CC(=O)N1CCN(C(=O)c2cn3cc(-c4cccc(C(F)(F)F)c4)sc3n2)CC1,,"inconclusive: 50.1 µM [inhibitor, partial curve, poor fit]",
CC(=O)N1CCC(N[C@H]2C[C@@H](Cc3cc(CN(C)c4ccccc4)on3)C2(C)C)CC1,,active: 89.1 µM,
O=C(NCCN1CCOCC1)C1CCc2nnc(-c3ccc(F)cc3)n21 (stereo not drawn),,,inactive: -12.1%

SMILES,outcome,Potency,"activity change, negative = cytotoxicity"
O=C(C1CCCN1c1nccc(Nc2ccccc2F)n1)N1CCC(c2ccccc2)CC1 (stereo not drawn),,"inconclusive: 50.1 µM [inhibitor, partial curve, poor fit]",
CNC(=O)CCn1ncc2cc(OC3CCc4cccc(-c5ccccc5F)c43)ccc21 (stereo not drawn),,active: 50.1 µM,
COc1cc(F)ccc1-c1nc(N2CCOCC2)cc2c1CN(CC1CC1)C2=O,,,inactive: -37.5% [at 138 µM]
C#CCNC(=O)C1CCCN1c1nc2ncccc2o1 (stereo not drawn),,,inactive: -16.2% [at 138 µM]
COc1ccc(C(=O)N2CCOCC3(C2)CN(c2ccccc2)C3)cc1OC,,,inactive: -37.5% [at 138 µM]
O=C(CNC(=O)c1ccc(-c2cnc3ccccc3c2)cc1)NCCc1ccccc1,,,inactive: -25.7%
COc1ccc(C(=O)N[C@H]2C[C@H]3C(=O)Nc4ccc(-c5ccsc5)cc4C(=O)N3C2)cc1,,"inconclusive: 50.1 µM [inhibitor, partial curve, poor fit]",
O=C(C[C@H]1NC(=O)c2ccccc2NC1=O)Nc1cccc2ncccc12,inactive,,
Cc1ccccc1-c1[nH]nc2ncc(-c3ccccc3O)nc12,,"inconclusive: 31.6 µM [inhibitor, full curve]",
O=C(c1cccnc1)N1CCCC2(CNc3ncccc3[S+](=O)([O-])N2)C1 (stereo not drawn),,"inconclusive: 70.8 µM [inhibitor, single point]",
COCCCNC(=O)c1cnc2n[nH]c(-c3ccccc3)c2n1,,"inconclusive: 22.4 µM [inhibitor, full curve, poor fit]",
O=c1n(-c2cccc(Cl)c2)nc2n1CCN(Cc1ccc(F)cc1)C2,,"inconclusive: 50.1 µM [inhibitor, partial curve, poor fit]",
COc1ccc(C(=O)N2CC(N(C)c3ccccc3C)C2)cc1,,"inconclusive: 25.1 µM [inhibitor, full curve]",
COc1cc(C(=O)NC2CCCc3c2[nH]c2ccccc32)cc(OC)c1OC (stereo not drawn),,"inconclusive: 44.7 µM [inhibitor, partial curve, poor fit]",
O=C(CN1C(=O)C2(CCCCC2)C1c1ccccc1)NCCCN1CCCC1=O (stereo not drawn),,,inactive: -13.1%
COc1ccc(NC(=O)[C@@H]2COCC(=O)N2Cc2ccc(OC)c(OC)c2)cc1Cl,,"inconclusive: 39.8 µM [inhibitor, partial curve, poor fit]",
Cc1cccc(C(=O)N2CCC3(CC2)c2nc[nH]c2CCN3CC(C)C)n1,,,inactive: -6.59%
O=C1c2cnc(-c3ccccc3)nc2OCCN1Cc1ccccc1,,"inconclusive: 50.1 µM [inhibitor, partial curve, poor fit]",
CCOC(=O)CCNC(=O)N1[C@@H]2CC[C@H]1CC(NC(=O)c1ccc(F)cc1)C2 (stereo partly drawn),inactive,,
Cc1ccccc1C(=O)NCc1nnc2cc(-c3nc(C4CC4)no3)ccn12,,"inconclusive: 44.7 µM [inhibitor, partial curve, poor fit]",
COCCc1noc([C@@H]2CN(Cc3ccc(C)o3)C[C@H]2CO)n1,,,inactive: -16.6%
CSc1ccc(NC(=O)c2ccc3c(c2)N(C)C2CCCCCN2C3=O)cc1 (stereo not drawn),,"inconclusive: 44.7 µM [inhibitor, partial curve, poor fit]",
